This data set concerns the molecule itself. Put plainly: cross-linking.

From PMC9939295 (Acta Pharmaceutica Sinica. B, 2022) come the findings set out here.

The term stoichiometry N denotes the number of molecules, sites or subunits per partner or assembly.

B1: recombinant GST-tagged ENO1 (enzyme)
chain: MSILKIHAREIFDSRGNPTVEVDLFTSKGLFRAAVPSGASTGIYEALELRDNDKTRYMGKGVSKAVEHINKTIAPALVSKKLNVTEQEKIDKL[about 350 residues not shown]
Take B1: the “stoichiometry N” value turned out to be 2.

B2: recombinant GST-tagged ENO1 R9K (enzyme)
chain: MSILKIHAKEIFDSRGNPTVEVDLFTSKGLFRAAVPSGASTGIYEALELRDNDKTRYMGKGVSKAVEHINKTIAPALVSKKLNVTEQEKIDKL[about 350 residues not shown]
In the case of B2, the binding result is “binds”.
